About 2,600 (0.72%) of roughly 360,000 compounds were called active. The shares of active, inactive and inconclusive entries below differ from those in the screen. Calls come from the whole dose curve; as a rule, active = well fitted inhibition curve with a large enough effect; inconclusive = small, poorly fitted or top-dose-only effect; inactive = no such curve, though single readings can be large or run the other way. Where the call is inconclusive, the potency comes from a doubtful curve fit.
Test: Primary qHTS for Inhibitors of ATXN expression; note: nearly all actives have a fitted effect of over 55% in size
Details: HEK-293 ATXN2-luciferase reporter, luminescence, 24 h; series mostly up to 57 µM
Method in brief: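 qHTS (up to 57 uM final) was run with 24 h compound exposure of reporter cells at 37 °C. Each well was multiplexed: SteadyGlo luminescence measured ATXN2-luciferase expression after a fluorogenic Gly-Phe-AFC viability readout (25 uM final).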
Potency is the fitted concentration of half-maximal effect; tags give direction and shape of the fitted curve.

| SMILES | Potency |
| --- | --- |
| CCOC(=O)C(CCCOc1ccc(C(C)CC)cc1)C(=O)OCC (configuration not stated) | inconclusive: 31.6 µM [inhibitor, single point] |
| CC1(C)OC2=C(C(=O)c3ccccc3C2=O)[C@H](NCc2ccccc2)[C@H]1O | active: 3.43 µM |
| COc1cc(C#Cc2c(-c3cncn3C)n(C)c3ccc(-c4ccc(CN5CCOCC5)cc4)cc23)cc(OC)c1 | inconclusive: 35.5 µM [inhibitor, single point] |
| CC(C)COc1ccc(C(=O)NC(=S)Nc2ccc(CN3CCOCC3)cc2)cc1 | inconclusive: 0.0075 µM [inhibitor, full curve, poor fit] |
| COc1ccc(NC(=O)C2(C)CCN2Cc2ccc3ccccc3c2)cc1OC (configuration not stated) | inconclusive: 39.8 µM [inhibitor, single point] |
| COC(=O)c1scc(C)c1NC(=O)Nc1ccccc1 | inactive |
| COc1ccc(NS(=O)(=O)c2cc(NC(=O)C3CCCCC3)ccc2N2CCOCC2)cc1 | inconclusive: 42.3 µM [inhibitor, partial curve, poor fit] |
| Cc1cccc(/C=N/NC(=O)c2cccc(Cl)c2)n1 | inconclusive: 17.8 µM [inhibitor, partial curve, poor fit] |
| Nc1c(Cl)cc2c(c1Br)Cc1ccccc1-2 | inactive |
| CCCCCCCCCCOCC(O)CN (configuration not stated) | active: 39.8 µM |
| N#CC(c1ccccc1)c1ccc2c(C(F)(F)F)cc(C(F)(F)F)nc2n1 (configuration not stated) | inconclusive: 17.8 µM [inhibitor, partial curve] |
| CCCCc1c(-c2ccccc2OC)ncn1Cc1cccc(-c2ccccc2)c1 | active: 28.2 µM |
| Cc1c(Cl)cccc1N/C(SCC(=O)N1CCCCCC1)=C(/C#N)c1nc2ccccc2s1 | inconclusive: 35.5 µM [inhibitor, single point] |
| S=C(N/N=C/c1ccc2ncccc2c1)Nc1cccnc1 | inconclusive: 11.9 µM [inhibitor, partial curve] |
| CCc1ccc2nc(N(CCCN(C)C)C(=O)c3ccc(S(=O)(=O)N4CCc5ccccc5C4)cc3)sc2c1 | inconclusive: 3.98 µM [inhibitor, partial curve, poor fit] |
| Cc1cc(OCCCc2c(C(=O)O)n(Cc3cccnc3)c3c(-c4c(COc5ccc(N6CCN([S+](C)(=O)[O-])CC6)cc5)nn(C)c4C)cccc23)cc(C)c1Cl | inconclusive: 43.2 µM [inhibitor, single point] |
| Cc1cccc(-c2nc(CN3CCCC(C(=O)NCCc4ccc(Cl)cc4)C3)c(C)o2)c1 (configuration not stated) | inconclusive: 35.5 µM [inhibitor, single point] |

Source: PubChem BioAssay AID1745845 (National Center for Advancing Translational Sciences (NCATS), 2022)
